# Data: paper PMC6919601, “Identification of Plasmodium dipeptidyl aminopeptidase allosteric inhibitors by high throughput screening” (PLoS ONE, 2019)
# Among all 110,000 compounds or so, about 230 (0.21%) showed an effect of 50% or more. The list shows a part of the results.
# Molecular target: DPAP1 (Plasmodium falciparum, UniProt Q8IIJ9)
# Assay: primary screen, percent inhibition; read by cleavage of a fluorogenic dipeptide substrate; higher = more effect of the substance
# Set-up: species or system P. falciparum D10 trophozoite lysates; single well
# 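Also: 30 min substrate incubation versus DMSO and 10 µM JCP410 controls.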
# DPAP1, sequence (Q8IIJ9 whole entry, looked up): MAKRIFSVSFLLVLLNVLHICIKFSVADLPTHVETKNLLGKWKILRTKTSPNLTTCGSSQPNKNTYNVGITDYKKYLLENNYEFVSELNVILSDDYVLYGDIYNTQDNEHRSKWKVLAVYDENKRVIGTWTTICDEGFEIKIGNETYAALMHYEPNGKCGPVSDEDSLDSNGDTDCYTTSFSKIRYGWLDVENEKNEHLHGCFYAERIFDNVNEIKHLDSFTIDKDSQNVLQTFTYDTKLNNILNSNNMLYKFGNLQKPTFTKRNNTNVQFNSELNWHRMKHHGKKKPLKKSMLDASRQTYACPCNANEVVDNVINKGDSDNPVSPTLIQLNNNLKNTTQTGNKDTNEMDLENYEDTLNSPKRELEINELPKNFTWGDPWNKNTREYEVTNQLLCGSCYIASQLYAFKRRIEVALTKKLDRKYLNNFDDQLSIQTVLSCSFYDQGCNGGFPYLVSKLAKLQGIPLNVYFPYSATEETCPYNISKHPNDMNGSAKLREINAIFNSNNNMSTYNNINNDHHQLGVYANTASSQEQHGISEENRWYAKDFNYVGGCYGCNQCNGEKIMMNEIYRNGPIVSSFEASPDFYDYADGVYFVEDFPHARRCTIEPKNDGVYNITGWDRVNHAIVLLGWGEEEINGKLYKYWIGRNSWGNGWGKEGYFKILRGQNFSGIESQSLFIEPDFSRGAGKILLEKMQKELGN
row,Compound,% Inhibition @ 10 uM
1,COc1ccc(C(=O)NCCC(C)C)cc1,0.331%
2,CCSc1nnc(NC(=O)c2nc(S(=O)(=O)Cc3ccccc3)ncc2Cl)s1,-0.946%
3,COc1ccc(C2C3=C(O)CCCC3=Nc3nc(S)nc(N)c32)cc1 (stereo not shown),-2.07%
4,CC(C)(C)c1ccc(C(=O)Nc2ccc(CC#N)cc2)cc1,-0.891%
5,CC1(C)Cc2c(sc3ncn4nc(-c5ccccn5)nc4c23)C(C)(C)N1,0.189%
6,CCCc1ccc(-c2nc(N)sc2C)cc1,0.331%
7,CSc1nc(Oc2ccc(NC(C)=O)cc2)cc(-n2ncc(C#N)c2N)n1,-1.06%
8,COc1cc(C(CC(=O)N2CCCCCC2)N2Cc3ccccc3C2=O)cc(OC)c1OC (stereo not shown),0.796%
9,COc1ccc(NC(=O)COc2cccc(C)c2)cc1OC,-1.52%
10,COc1ccc(Cc2cnc(O)nc2O)cc1,-5.62%
11,CCc1cc2c(cc3c(=O)n(CC(=O)NCCCN4CCOCC4)ncn32)s1,1.68%
12,CCOc1ccc(CNCCSc2nnnn2C)cc1OCC,0.00706%
13,CC(C)NC(=O)c1nn2c(C(F)(F)F)cc(-c3ccco3)nc2c1Cl,1%
14,N#Cc1ccccc1NC(=O)NS(=O)(=O)c1ccccc1Cl,-0.962%
15,O=C(Cn1nc(-c2ccccc2)ccc1=O)NCc1cccnc1,3.79%
16,CCc1ccc(Cn2nnc(C(=O)NCc3ccc(Cl)cc3Cl)c2N)cc1,-3.48%
17,COc1ccc(Cn2c(=O)c3cccnc3n(Cc3ccc(C)cc3C)c2=O)cc1,3.32%
18,COc1ccc(CN2CCN(Cc3ccccc3Cl)CC2)cc1,-5.46%
19,C=CCn1c(S)nnc1-c1cc(Cl)ccc1OC,2.09%
20,CCc1ccccc1NC(=O)c1ccc(-c2ccccc2)cc1,3.1%
21,CCOC(=O)N1CCN(c2c(NCc3ccc(OC)cc3)c(=O)c2=O)CC1,1.93%
22,COC(=O)c1ccc2oc(=O)c(-c3nc(-c4cccnc4)no3)cc2c1,-4.02%
23,Cc1nn(-c2ccc(F)cc2)c2c1C(c1ccccc1)C(C#N)=C(N)O2 (stereo not shown),-13.6%
24,COc1nc(C)nc(NC(=O)NS(=O)(=O)Nc2ccc(Cl)c(Cl)c2)n1,-6.52%
25,C=CCNC(=O)c1c(-c2ccccc2)noc1C,-2.09%
26,COc1cc2c(cc1OC)C(c1ccc3c(c1)OCO3)NCC2 (stereo not shown),-0.0372%

row,Compound,% Inhibition @ 10 uM
1,O=C1C2C3C=CC(C3)C2C(=O)N1CN(CC1CCCO1)CN1C(=O)C2C3C=CC(C3)C2C1=O (stereo not shown),7.78%
2,Cc1cc(Nc2ccc(N)c(C)c2)ccc1N,0.847%
3,COc1ccc(OCC(=O)Nc2cccc(O)c2)cc1,-6.02%
4,O=C(CSc1nc(O)c2ccccc2n1)Nc1cccc(Cl)c1Cl,-0.872%
5,COc1ccc(/C=C(\C#N)c2nc(-c3ccc(Cl)cc3)cs2)cc1,-4.31%
6,CN(Cc1ccccc1)C(=O)C1CCN(c2ncnc3c2nc2n3CCCCC2)CC1,0.244%
7,Cc1nn(CC(=O)NCCC2=CCCCC2)c(=O)c2nn(-c3ccccc3)c(C)c12,2.65%
8,CCn1nc(-c2ccccn2)nc2c(=O)n(C)c(=O)nc1-2,17%
9,CCCCSCCCNC(=O)CSCc1nc(-c2ccc(OCC)cc2)oc1C,2.15%
10,Cc1ccc(C2CC(c3c(F)cccc3Cl)n3ncnc3N2)cc1C (stereo not shown),0.219%
11,Cn1c(=O)c2c(ncn2CCOC(c2ccc(F)cc2)c2ccc(F)cc2)n(C)c1=O,-1.57%
12,COc1cc2c(cc1OC)CN(C/C(Cl)=C/c1ccccc1)CC2,-3.42%
13,Cc1c(Cl)cccc1NC(=O)c1ccc2c(c1)C(=O)N(Cc1cccnc1)C2=O,4.44%
14,Cc1sc(NC(=O)c2cccs2)nc1-c1ccccc1,1.84%
15,C=CCOC(=O)C1=C(C)NC(=O)NC1c1cccc(OCc2ccccc2)c1 (stereo not shown),-1.17%
16,Sc1nc2cnccc2n1Cc1ccccc1,0.774%
17,CCN(CC)c1nnc(N)s1,-6.36%
18,CC(CN1CCCC(O)C1)c1ccccc1 (stereo not shown),-5.26%
19,CC1CCc2c(sc3nc(-c4ccco4)oc(=O)c23)C1 (stereo not shown),0.345%
20,CCC1CCC(NCC2CCCO2)CC1 (stereo not shown),0.0792%
21,O=C(CSc1nnnn1-c1ccccc1)Nc1c(-c2ccccc2)nc2ccccn12,1.03%
22,CC(=O)NC1=C(C(=O)c2ccccc2)N(C)S(=O)(=O)c2ccccc21,0.0598%
23,COCCCNC(=O)CN1Cc2ccccc2C1=O,1.6%
24,O=C(/C=C/c1ccccc1)ONC(=O)c1ccc(Cl)cc1,-11%
25,CC(C)Oc1ccc(-c2cc(C(=O)NCCCN3CCOCC3)c3ccccc3n2)cc1,-12.3%
26,CCOC(=O)c1c(C)c(C(=O)N2CCc3ccccc3C2)c(C)n1CC,-3.44%

row,Compound,% Inhibition @ 10 uM
1,O=C1C(NC2CCCCC2)=C(N2CCOCC2)C(=O)c2ccccc21,-1.47%
2,O=C(Cn1c2c(c(-c3ccccc3Cl)cc1=O)CCC2)NCCCN1CCOCC1,2.35%
3,O=C1/C(=C/c2ccc(Br)o2)Sc2ccccc21,1.4%
4,CC(=O)NCCc1ccc(S(=O)(=O)N2CCCCC2)cc1,0.413%
5,C=CCn1c(Oc2ccc(C#N)cc2)nc2c1c(=O)n(C)c(=O)n2C,-2.83%
6,CSc1ccccc1NC(=O)C1C2C=CC(O2)C1C(=O)O (stereo not shown),-0.661%
7,C=CCN(Cc1cc(OC)ccc1OC)C(=O)Nc1cccc(Cl)c1,4.11%
8,CC(=O)Nc1ccccc1-c1nn[nH]n1,-3.27%
9,COc1ccc(-n2c(SCC(=O)c3ccc(Cl)cc3)nc3nncc-3c2O)cc1,-0.256%
10,NC(=O)c1cnn(Cc2ccc(Cl)cc2)c1N,1.74%
11,CCC1CCc2nc3sc(C(=O)Nc4ccc(OC)c(OC)c4)c(N)c3cc2C1 (stereo not shown),-10.7%
12,CC(=O)Nc1ccc(NCCC#N)cc1,0.132%
13,Cc1cc(O)nc(SCC(=O)Nc2ccc(Br)cc2)c1C#N,2.55%
14,COc1ccc(-c2noc(N3CCc4ccccc4C3)n2)cc1,-5.05%
15,CCNC(=O)CN(c1ccc(C)cc1)S(=O)(=O)c1ccc(OCC)cc1,-3.25%
16,O=C(COc1c(F)c(F)c(F)c(F)c1F)Nc1nonc1-c1ccccc1,2.29%
17,CC(C)C[C@H](NC(=O)C1(NC(=O)c2ccc(C(C)(C)C)cc2)CCCCC1)C(=O)c1nc2ccccc2o1,-3.04%
18,CCOc1cc2c(cc1OCC)C(c1ccc(C)cc1C)NCC2 (stereo not shown),-3.04%
19,Cc1cccc(N2C(=O)c3cccc4cccc(c34)C2=O)n1,-1.93%
20,CCn1cc(/C=C(\NC(=O)c2ccccc2)C(=O)NCCO)c2ccccc21,4.61%
21,CC(=O)c1cc2c(cc1NC(=O)c1ccc(Cl)cc1)OCCO2,5.7%
22,Cc1ccccc1NC(=O)C1CC(=O)N(c2ccc3c4c(cccc24)CC3)C1 (stereo not shown),-5.27%
23,O=C(NCC12CC3CC(CC(C3)C1)C2)c1nc(-c2cccs2)no1,4.61%
24,CC(C)CNC(=O)c1c2c(nn1C)-c1ccccc1SC2,-9.6%
25,Brc1ccc(-c2ccc(/C=C/c3nc4ccccc4o3)o2)cc1,1.87%
26,Cc1ccc(-n2ncc3c(O)nc(SCC(=O)N4CCOCC4)nc32)cc1,-3.35%

row,Compound,% Inhibition @ 10 uM
1,Cc1ccc(C2c3c(oc4ccccc4c3=O)C(=O)N2c2nccs2)o1 (stereo not shown),-4%
2,O=C(Cn1cccc1C(=O)c1ccccc1)NCCCN1CCOCC1,-9.79%
3,COc1ccc(/C=C/c2ccncc2)c2ccccc12,-0.0404%
4,Cc1ccc(-c2csc(/C(C#N)=C\Nc3ccccc3)n2)cc1,2.46%
5,COc1ccccc1N1C(=O)CC(Nc2ccc(N3CCOCC3)cc2)C1=O (stereo not shown),5.12%
6,CCC1CCCCN1S(=O)(=O)c1ccc(C)cc1 (stereo not shown),-3.41%
7,Cc1ccc(-c2cc(=O)n3cnnc3s2)cc1,1.76%
8,Cc1nn(Cc2ccc(C(=O)NC3C4CC5CC(C4)CC3C5)o2)c(C)c1Br (stereo not shown),1.93%
9,CC(C)C[C@H](NC(=O)OC1CCCC1)C(=O)NCC#N,-1.41%
10,COCCNC(=O)CN(c1ccccc1)S(=O)(=O)c1ccc(C)cc1,-6.75%
11,CC(NC(=O)c1ccc(C(=O)NC(C)c2ccccc2)cc1)c1ccccc1 (stereo not shown),0.188%
12,O=C(c1ccc(CN2CCOCC2)cc1)N(Cc1ccccc1)Cc1ccccc1,-1.59%
13,COCCCNC(=O)c1cc(-c2ccc(OC)cc2)nc2ccc(C(C)C)cc12,4.36%
14,O=C(Nc1c(C(=O)O)oc2ccc(Cl)cc12)c1ccc(C(F)(F)F)cc1,-2.8%
15,Cc1nn(-c2ccc(Cl)cc2)c(O)c1/C=N/c1ccc(C(=O)N(C)C)cc1,5.58%
16,Cc1ccc(/N=C2\C(=O)N(CN3CC(C)OC(C)C3)c3ccccc32)cc1C (stereo not shown),-0.759%
17,O=C(NCCN(Cc1ccco1)C1CCCC1)c1cc2ccc3cccnc3c2[nH]1,-3.84%
18,CCC(=O)Oc1ccc(CNC(C)(C)C)cc1,1.7%
19,COc1ccc(CSc2nncn2N)cc1Cl,-1.26%
20,COc1ccc2[nH]c3c(=O)n(CCCCC(=O)NCCc4sccc4C)c(=S)[nH]c3c2c1,0.351%
21,O=C(CN(c1ccc(-c2ccccc2)cc1)S(=O)(=O)c1ccccc1)N1CCCCC1,1.93%
22,COc1ccc(-c2noc(CNC(=O)COc3ccc(C(C)C)cc3Br)n2)cc1,0.486%
23,CCC(C)(C)C1CCc2c(sc(NC(=O)C(C)C)c2C(N)=O)C1 (stereo not shown),-0.865%
24,Cc1ccc(Cn2cnc3cc(C)c(C)cc32)cc1,-7.83%
25,CC(=O)Nc1ccc(S(=O)(=O)Nc2ccc(Cl)cc2)cc1,-7.5%
